Data taken from PubChem BioAssay AID1347073 (National Center for Advancing Translational Sciences (NCATS), 2019).
Out of some 45,000 compounds screened, about 200 (0.44%) were called active. Roughly 7% stayed inconclusive and do not appear here. Calls come from the whole dose curve; as a rule, active = well fitted activation curve with a large enough effect; inconclusive = small, poorly fitted or top-dose-only effect; inactive = no such curve, though single readings can be large or run the other way. Some of the results follow.

Experiment: qHTS of TDP-43 Inhibitors: NCGC Sytravon Library Screen; note: nearly all actives have a fitted effect of over 55% in size; for growth rescue (activation): 0% is about no effect
Settings: yeast TDP-43 toxicity rescue, BacTiter-Glo growth, 24 h; series mostly up to 46.1 µM; growth rescue (activation): at the top concentration
How it was run: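 TDP-43-expressing yeast, pregrown in raffinose, seeded at OD600 0.02 in galactose medium with compound for 24 hr at 30 deg C. Growth read by BacTiter-Glo luminescence, so rescue of toxicity appears as activation.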
Potency is the fitted concentration of half-maximal effect.

Row | SMILES | growth rescue (activation) | Potency
1 | CCOc1ccc(NC(=O)C2CCN(c3nnc(-n4c(C)ccc4C)s3)CC2)cc1 | inactive: 8.12% | –
2 | O=C(CCCc1ccccc1)Nc1ccc(S(=O)(=O)N2CCOCC2)cc1 | inactive: 13.8% | –
3 | CN(Cc1ccc(F)cc1)C(=O)COc1ccccc1-c1ccccc1 | – | active: 25.1 µM
4 | CC(C)(C)c1ccc(C(=O)O)c(C(=O)c2ccc(C(=O)O)cc2)c1 | inactive: -24.5% | –
5 | COc1ccc(-c2n[nH]c(C)c2-c2ccccc2OC)c(O)c1 | inactive: -0.59% | –
6 | O=C(NCCc1c[nH]c2ccccc12)c1cccc(S(=O)(=O)Nc2ccccc2Cl)c1 | inactive: 3.12% | –
7 | COc1ccc(-c2nc3ncccc3o2)cc1NC(=O)c1ccco1 | inactive: -6.84% | –
8 | COCCNC(=O)C1Cc2c(-c3ccc(NC(C)=O)cc3)ccnc2O1 (centres undefined) | inactive: 15.6% | –
9 | O=C(Cc1cccs1)N/N=C/c1ccco1 | inactive: 3.09% | –
10 | CCN(C(=O)COC(=O)/C=C/c1c(C)nn(-c2ccccc2)c1C)C1CCS(=O)(=O)C1 (centres undefined) | inactive: -1.59% | –
11 | O=C(NC1CCN(Cc2ccccc2)CC1)C1CCN(S(=O)(=O)c2ccccc2)CC1 | inactive: -8.19% | –
12 | CC1(C(=O)NS(=O)(=O)c2cccc(Cl)c2)CCN1C(=O)CC1CCCC1 (centres undefined) | inactive: -1.63% | –
13 | COC(=O)CNC(=O)CNC(=O)c1nn(-c2ccc(OC)c(Cl)c2)c(=O)c2ccccc12 | inactive: 6.12% | –
14 | COc1ccc(NC(=O)CCOc2cc(C)ccc2C)cc1S(=O)(=O)N1CCCCC1 | inactive: 11.5% | –
15 | COc1cccc(OC)c1OCCCN1CCOCC1 | inactive: -6.91% | –
16 | O=C(NCc1ccc(Cl)cc1)c1ccc(NC(=O)C2CCCO2)cc1 (centres undefined) | inactive: 11% | –
17 | COc1cccc(C(=O)N2CCC(n3nccc3NC(=O)C(OC)c3ccccc3)CC2)c1 (centres undefined) | inactive: 7.52% | –
18 | CCOc1ccc(N2CC(C(=O)Nc3nnc(SCCOC)s3)CC2=O)cc1 (centres undefined) | inactive: 1.39% | –
19 | COc1ccccc1C(=O)Nc1sc(C(=O)N2CCCC2)c(C)c1C#N | inactive: 1.64% | –
20 | CSc1ccc(-c2nc(O)c3cnccn23)cc1 | inactive: -8.73% | –
21 | C=C(C)CNC(=S)N/N=C/c1c(F)cccc1F | inactive: 21.1% | –
22 | Cc1ccc(OCC(=O)c2cc(C)n(Cc3ccco3)c2C)c([N+](=O)[O-])n1 | inactive: 10.8% | –
23 | COc1ccccc1OCCNC(=O)c1cc(F)c(F)cc1Cl | inactive: 16.4% | –
24 | COc1ccc(N2CCN(c3ncnc4scc(-c5ccc(C)cc5)c34)CC2)cc1 | inactive: -0.631% | –
25 | Cc1nc2c(cc1C(=O)N/N=C/c1ccc(O)c(O)c1)c(=O)n(C)c(=O)n2C | inactive: -12.8% | –
26 | COc1ccc(-c2cc(=O)oc3cc(O)ccc23)cc1 | inactive: 4.58% | –
27 | O=C(NCCCc1ccncc1)C1CCC(=O)N(Cc2cccc(C(F)(F)F)c2)C1 (centres undefined) | inactive: -1.07% | –
28 | O=C(NCC(=O)N1CCN(c2ccccc2O)CC1)c1ccccc1 | inactive: -6.51% | –
29 | COC(=O)c1ccc(C(=O)OC)c(NC(=O)Oc2ccccc2)c1 | inactive: 8.9% | –
